These results are taken from PubChem BioAssay (NCI).

The source holds several records for some structures; these can differ, active in one and inactive in another.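 Plates (96-well) were seeded with cells, treated with compound at one concentration, and incubated for 48 hours before percent growth was determined.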 A number of entries come with more than one value. The list is limited to them. Rule for the calls: active = growth percent below 10; inactive = the rest. An entry can have further records. The screen tested this drug many times, at the concentration stated with the values; one value stands for one run. Additions like (4×) give the number of equal values in this list.

The test system of the assay is UACC-62 melanoma. The experiment in a line: NCI-60 one-dose screen, 48 h (100 = growth as untreated, 0 = no growth, -100 = all killed).

With `COc1cccc2c1C(=O)c1c(O)c3c(c(O)c1C2=O)C[C@@](O)(C(=O)CO)C[C@@H]3OC1CC(N)C(O)C(C)O1` (some centres not stated), the growth entry is “inactive: 29.5, 35.7, 19.8 (2×), 16.3, 15.6, 17.2, 12.4, 13, 18, 14.4, 16.4, 24.9, 11.9, 15.8, 24.5 (2×), 33.8, 29.8 (2×), 15.2, 15.7, 20.2, 21.8, 18.8, 10.9, 24.3, 27.9, 10.4, 14.6, 26.1, 12.2, 19.3, 35.1, 32.5, 27.4, 21.4 (2×), 26.2, 20.7, 17.1 (2×), 21, 22.9, 20, 31.3, 33.1, 33.5, 21.5% and active: 8.46%, 8.34%” (0.25 µM, runs of 2018); “inactive: 13.4, 16.1 (2×), 16.3, 27.2 (2×), 32.9, 21.5, 23.4, 18.9, 29.9, 30.1, 30.3, 13.7, 10, 25.7, 12.8, 32, 29.5, 22.3 (2×), 21.4, 23.1, 23.7, 27.4, 19.2, 18.8, 24.3, 22.2, 20.2, 18.6, 19.3, 21.1, 32.5, 24.4, 26.8, 21.9, 17, 15.4% and active: 7.05, -7.73, -0.145, 5.99, 7.83, 6.16, 5.53, 5.8%” (0.25 µM, runs of 2019); “inactive: 26.8, 32.5, 30.4, 18, 25.7, 30, 28.2, 23.6, 35.7, 18.5, 25.8, 13, 25.5, 26.5, 25.6, 35, 43.4, 22.2, 32.9, 36.8, 46.3%” (0.25 µM, runs of 2020); “inactive: 23.9, 37.1, 27.5, 19.3, 23.8, 25.7, 29.8, 16.8 (3×), 13.3, 24.3, 20.2, 17, 20.8 (2×), 18.6, 17.9, 21.4, 10.1, 14.3 (2×), 11.8, 15.1, 15, 24.2, 27.8, 27.2, 28.9, 32.3, 26.7, 13.1, 23, 19.8, 22.9, 26, 15.9, 14.6, 22.7, 19.1, 30.9, 16.3, 32, 23.4% (2×) and active: 6.29%” (0.25 µM, runs of 2021); “active: -65.4, -65, -91.1, 3.5, -38.1, 0.44, -7.14, 3.37, -2.2, 7.3, 6.52, 9.65, 0.399, 2.05, -2.17, 2.62, 5.03, 9.51, 6.06% and inactive: 12, 11.9, 12.3, 20, 38.9, 46.4, 10.6, 47.6, 37.1, 48%” (0.25 µM, runs of 2022); “active: 8.49, -77.3, -96.4, -100, -85.6, -70.1, -86.4, -88.6, -64.4, -98.2, -84, -71.7, -67.2, -90.2, -96, -97.8% and inactive: 18.6%” (25 µM, runs of 1991). Also, the growth result runs as follows: (25 µM, runs of 1992) “active: -83.5, -63.8, -77.7, -91.6 (2×), -62.1, -99.5, -99.8 (3×), -63.9 (2×), -48.4, -71.6, -77, -61.4, -88.6, -93 (2×), -92.5, -96.6 (2×), -97.4, -99.3 (4×), -43.2, -72.2 (3×), -94.5 (2×), -89.8, -93.4, -66, -90.2, -80.3, -73.2, -55.9, -92.9, -97, -100 (7×), -62.7, -93.2, -95.4 (3×), -95.1, -91.9, -71.9, -87.2, -85.8, -90.3, -81.3, -89.5, -70.1 (2×), -94.7, -95.7, -94.9, -80.2, -79.9, -83, -48.1, -92.2 (2×), -71.4, -52.1 (2×), -91.1, -93.3, -97.9, -86.6, -88.2, -98.6, -69.9, -83.2, -70.8, -67.3, -93.8, -96, -97.2, -84.6, -0.502, 0.925, 0.524, -61.6, -60.7, -88.3 (2×), -74.7, -63.1, -69.3, -93.9, -38.5, -93.5, -99.6, -89.7, -66.2, -68.3, -91.3, -98.2, -47.1, -74.5, -59.3, -89.3, -96.9, -60.1, -91.4, -81.8, -90.7, -97.8, -68, -98% and inactive: 103%”; (25 µM, runs of 1993) “active: -86.8 (2×), -58.5 (2×), -12.5, -84.5, -97.1, -37.2, -59, -65.5, -89.5, -99.4, -34.6, -53.8 (2×), -82.6, -60.8, -79, -74.5, -61.8, -94.4, -87.8, -80.8, 8.96, -50.4, -68.2, -74.6, -6.42, -73.6, -44.3, -46.7, -50, -80.5, -73.4, -81.8, -96.7, -84.6, -79.5, -99.2, -59.5, -59.1, -87.9, -16.6, -66.7, -88.3%”; (25 µM, runs of 1994) “active: -91.6, -52.6, -71.9, -86.3, -81.8, -89.6, -90, -95.8, -83.3, -99.8 (2×), -33.3, -98.4, -55.3, -73.8, -90.3, -93.2, -99.5, -60.3, -54.8, -89.4, -82.5, -15.7, -46.9, -73, -98, -64, -54.5, -96.4, -29.5, -71.7, -68.9% and inactive: 95%”; (25 µM, runs of 1995) “active: -43.7, -55, -81.9, -50.1, -93.1, -32.6, -72.9, -35.4, -93.6, -53.2, -77, -77.2, -59.7, -48.6, -84.6, -100 (4×), -83.1, -85.8, -75, -87.7, -50.6, -79.1, -91.4, -82.3, -57.9, -93.9, -86.7, -83, -67.1, -88.8, -66, -89.1, -67.8, -93.5, -97, -90.7, -93.3, -85.1, -94.8, -92, -91.8, -77.9, -82.8, -92.9, -80.7, -78.7, -85.3 (2×), -96.2%”; (25 µM, runs of 1996) “active: -60.5, -74 (2×), -78.6, -81.2, -44.6, -92.9, -65.5, -52.6, -76, -79.8, -100 (13×), -74.4, -77.8 (2×), -96.6, -83.3, -89.7, -89, -94.7 (2×), -45, -84 (2×), -95.6, -97.8, -74.9, -88.4, -59.7, -84.9, -93.1, -66.9, -76.4, -50.1, -87.9, -88.8, -56.7, -95 (2×), -94.2, -91.2, -69.2, -70.8, -73.5, -95.2, -83.8, -88.2, -74.1, -90.1 (2×), -97.4 (2×), -72.7, -60.4, -80.2 (2×), -97.7, -64.5, -79.5, -94.9, -79.9, -89.5, -85.9, -85, -63.4, -83.4, -63.5 (2×), -98.7, -71, -55.2, 4.31, -89.8, -93.5, -86.2, -92.3, -82.1, -87.2, -81.5, -75.9, -58.9, -84.1, -86.8, -51.9, -97.5, -88.9, -91.6, -95.7, -54.2, -97.9% and inactive: 83, 90.8, 105, 50.1%”; (25 µM, runs of 1997) “active: -88.5, -71.5, -96.7, -80, -76.1, -99.2, -49.3, -100 (2×), -83.8, -74.5, -85.4 (2×), -89.2, -97.2, -93.4, -96.1, -72.7, -75.3, -77.6, -80.7, -75.9, -87.7 (2×), -92, -86.6, -80.2, -82.2, -93.6, -93.3, -77.9, -54.5, -82, -95.4, -96.6, -56.7, -67.7, -63.6, -23.1, -76, -24.8, -71.6, -53.7, -38.1, -77.5, -38.5, -58.8, -83.6, -92.2, -95.3, -87.6, -86.1, -53.6, -62.7, -48.1, -90.6% and inactive: 66.7%, 91.5%”.
